In US20240277806A1 (published 2024):

Experiments:
GDF11 = target: T1, GDF11 (UniProt O95390 299-407); assay: Biacore
T1 chain: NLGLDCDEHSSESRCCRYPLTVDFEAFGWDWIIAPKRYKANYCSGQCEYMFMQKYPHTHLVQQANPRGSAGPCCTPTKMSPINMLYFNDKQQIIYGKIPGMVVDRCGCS

activin A = target: T2, activin A (UniProt P08476 311-426); assay: Biacore
T2 chain: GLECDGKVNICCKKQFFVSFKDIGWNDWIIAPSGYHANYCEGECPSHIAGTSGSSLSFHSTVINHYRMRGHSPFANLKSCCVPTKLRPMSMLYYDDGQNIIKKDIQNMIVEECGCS

Kd (GDF11): 9.96 nM | Kd (activin A): 0.005 nM
B1: ActRIIA-hFc (Fc fusion)
chain: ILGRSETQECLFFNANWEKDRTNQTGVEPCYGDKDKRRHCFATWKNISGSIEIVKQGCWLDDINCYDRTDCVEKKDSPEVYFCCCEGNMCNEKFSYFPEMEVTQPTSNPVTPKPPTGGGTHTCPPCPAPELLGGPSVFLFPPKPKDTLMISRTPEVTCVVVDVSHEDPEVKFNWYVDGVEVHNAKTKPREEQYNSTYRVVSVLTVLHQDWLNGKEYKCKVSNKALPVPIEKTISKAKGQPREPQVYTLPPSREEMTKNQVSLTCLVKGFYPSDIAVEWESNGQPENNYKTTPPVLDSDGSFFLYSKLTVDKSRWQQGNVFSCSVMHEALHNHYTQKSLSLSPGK
